Hit rate of the full screen: of about 110,000 compounds, about 230 (0.21%) showed an effect of 50% or more. The list shows a part of the results.
What follows are compounds tested against DPAP1 (Plasmodium falciparum, UniProt Q8IIJ9) (assay: primary screen, percent inhibition; read by cleavage of a fluorogenic dipeptide substrate; higher = more effect of the substance).
Design: species or system P. falciparum D10 trophozoite lysates; single well
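Note: 30 min substrate incubation versus DMSO and 10 µM JCP410 controls.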

Chain of DPAP1 (Q8IIJ9 whole entry, looked up): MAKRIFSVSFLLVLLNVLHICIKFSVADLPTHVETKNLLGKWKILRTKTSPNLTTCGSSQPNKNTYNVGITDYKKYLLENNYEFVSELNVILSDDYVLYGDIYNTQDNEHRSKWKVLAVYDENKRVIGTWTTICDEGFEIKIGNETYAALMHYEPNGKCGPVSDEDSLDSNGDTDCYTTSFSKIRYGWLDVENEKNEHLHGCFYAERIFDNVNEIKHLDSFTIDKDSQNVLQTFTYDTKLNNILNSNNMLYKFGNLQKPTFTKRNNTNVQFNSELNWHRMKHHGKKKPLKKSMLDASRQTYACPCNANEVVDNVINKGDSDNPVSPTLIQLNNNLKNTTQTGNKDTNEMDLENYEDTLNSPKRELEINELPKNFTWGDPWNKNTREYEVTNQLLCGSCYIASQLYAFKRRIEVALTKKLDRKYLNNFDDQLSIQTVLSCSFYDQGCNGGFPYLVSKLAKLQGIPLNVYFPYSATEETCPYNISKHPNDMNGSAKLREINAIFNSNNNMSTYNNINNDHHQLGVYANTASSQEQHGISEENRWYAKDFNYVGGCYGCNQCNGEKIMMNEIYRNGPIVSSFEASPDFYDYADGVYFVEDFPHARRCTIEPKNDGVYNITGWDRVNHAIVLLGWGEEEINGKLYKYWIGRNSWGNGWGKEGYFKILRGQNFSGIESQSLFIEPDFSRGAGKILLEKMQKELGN

In order of falling “% Inhibition @ 10 uM” value:
1. N#Cc1c(C(F)(F)F)cc(-c2cccs2)nc1SCC(=O)N1CCCCC1  87%
2. COc1ccc2[nH]c(SCC(=O)Nc3ccc(S(=O)(=O)Nc4onc(C)c4C)cc3)nc2c1  22.4%
3. COc1ccc(C2CC(=O)N3C(=C2C#N)SCC3(O)c2ccco2)cc1 (stereo not drawn)  20.2%
4. O=[N+]([O-])c1ccc(S(=O)(=O)N2CCCCCC2)cc1  16.8%
5. CCN(C(=O)c1sc(NC(=O)c2cccs2)c(C#N)c1C)C1CCCCC1  14.8%
6. CCOc1ccc(NC(=O)c2c(NC(=O)CCC(=O)O)sc3c2CCC(C)C3)cc1 (stereo not drawn)  12.5%
7. O=C(Nc1ccc(Cl)cc1)c1ccc2c(c1)OCO2  9.6%
8. CC(=O)C(C)n1c(CN2CCCCC2)nc2c1c(=O)n(C)c(=O)n2C (stereo not drawn)  8.49%
9. CCOC(=O)c1cc(-c2ccc(C)cc2)n(CCC(=O)N2CCN(c3ccccn3)CC2)c1C  6.38%
10. COc1ccc(CSC(=S)NC2CCS(=O)(=O)C2)cc1 (stereo not drawn)  6.08%
11. Cc1ccc(OCC(=O)Nc2ccc(Oc3ccccc3)cc2)cc1  5.84%
12. CCOC(=O)c1c(NC(=O)CN2C(=O)c3ccccc3S2(=O)=O)sc2c1CCCC2  5.44%
13. COc1ccccc1C(=O)NCCNC1=NS(=O)(=O)c2ccccc21  5.39%
14. CC1(C)Cc2ccccc2CN1C(=O)c1ccccc1  5.37%
15. O=C(CN1C(=O)S/C(=C\c2ccc(-c3ccc(F)cc3)o2)C1=O)N1CCOCC1  4.53%
16. CC(C)C[C@H]1CCC[C@H](CC(C)C)N1CCO  3.65%
17. Cn1c(=O)n(Cc2cccc(Br)c2)c(=O)c2c1ncn2Cc1ccccc1  3.53%
18. CN(CCNC(=O)c1cc2ccc3cccnc3c2[nH]1)Cc1ccccc1  3.28%
19. COc1ccc(OC)c(NC2=C(Cl)C(=O)N(Cc3ccccc3)C2=O)c1  3.05%
20. Fc1ccc(C2NCCc3c2[nH]c2ccccc32)cc1 (stereo not drawn)  2.99%
21. CCN1C(=O)S/C(=C/c2ccc(OCC(N)=O)c(OC)c2)C1=O  2.87%
22. O=C1NC(c2ccncc2)C(C(=O)c2ccccc2)C(O)(C(F)(F)F)N1 (stereo not drawn)  2.64%
23. Cc1ccc(/C=C(\NC(=O)c2ccccc2)C(=O)Nc2ccc3c(c2)OCO3)o1  2.46%
24. O=C(O)CCc1ccc(-c2ccccc2)n1CCc1ccccc1  2.32%
25. O=C(/C=C/c1ccc2c(c1)OCO2)N1CCCC1  2.16%
26. CCC(C)NC(=O)c1cc2c(s1)CSC2 (stereo not drawn)  2.12%
27. COCc1cc(C2SCC(=O)Nc3c2c(-c2ccccc2)nn3-c2ccccc2)ccc1OC (stereo not drawn)  2.09%
28. CC(C)(C)c1ccc(OCC(=O)Nc2ccc(S(=O)(=O)N3CCCCCC3)cc2)cc1  1.94%
29. CN1C(=O)c2ccc(NC(=O)c3ccccc3Br)cc2C1=O  1.89%
30. CCCCCCNC(=O)c1ccccc1-c1nc2ccccc2[nH]1  1.88%
31. O=C(Nc1ccc(-c2nc3cc(NC(=O)C(F)(F)F)ccc3s2)cc1)C(F)(F)F  1.71%
32. NC(=O)CSc1nc2nncc-2c(O)n1-c1ccccc1  1.57%
33. Cc1oc(-c2ccccc2F)nc1CS(=O)(=O)CC(=O)NCCCN1CCN(C)CC1  1.55%
34. O=[N+]([O-])c1cc2c3nnc(O)c-3cn(-c3ccc(F)cc3)c2cc1Cl  1.54%
35. CN1CCCN(Cc2ccc([N+](=O)[O-])o2)CC1  1.48%
36. CC(C)C[C@H](NC(=O)N1CCC(O)(c2ccccc2)CC1)C(=O)NCC#N  1.35%
37. OC(CCN1CCOCC1)(c1ccc(Cl)cc1)C1CCCCC1 (stereo not drawn)  1.12%
38. C=COCCOCCn1c2ccccc2c2ccccc21  1.04%
39. Oc1ccc(CNCC2NCCc3ccccc32)cc1Cl (stereo not drawn)  1.03%
40. COc1ccc(C2C(C#N)=C(N)OC3=C2C(=O)CCC3)cc1COc1ccccc1 (stereo not drawn)  1.02%
41. Cc1cc(C)c(S(=O)(=O)NCc2csc(-c3cccnc3)n2)c(C)c1  0.747%
42. COC(=O)N1CC(=O)N(OCc2ccccc2)C1c1ccc(Cl)cc1Cl (stereo not drawn)  0.726%
43. COc1ccccc1Nc1nc(-c2ccc(S(=O)(=O)N3CCCCC3)cc2)cs1  0.708%
44. CCN1C(=O)C(=CNc2ccccc2OC)C(=O)N(CC)C1=O  0.687%
45. O=C(Cn1ncc2c(Cl)cccc21)NCCCN1CCCC1  0.596%
46. O=C(CNS(=O)(=O)c1ccc(Cl)cc1)N1CCN(c2ccccc2F)CC1  0.59%
47. O=C(N1CCCc2ccccc21)C(O)(c1ccccc1)c1ccccc1  0.219%
48. CCc1nc2c(cnn2-c2ccc(C)cc2)c(=O)n1Cc1ccc(C)cc1  0.208%
49. Cc1cc(N2C(=O)C(O)=C(C(=O)c3cccs3)C2c2ccc(C(C)(C)C)cc2)no1 (stereo not drawn)  0.206%
50. N#CCNC(=O)C1(NC(=O)N2CCN(c3ccc(-c4cccnc4)cc3)CC2)CCCCC1  0.173%
51. Cn1c(SCC(=O)NC23CC4CC(CC(C4)C2)C3)nnc1-c1ccncc1  -0.0678%
52. Cn1c(=O)c2c(nc(SCC(=O)NC(C(=O)O)(c3ccccc3)c3ccccc3)n2C)n(C)c1=O  -0.0735%
53. COc1ccc(C2C(C(=O)NC3CCCCC3)c3cc(OC)c(OC)cc3C(=O)N2C)cc1 (stereo not drawn)  -0.363%
54. O=C(Nc1nc(-c2ccc(Cl)c(Cl)c2)cs1)C1CC1  -0.473%
55. CCCN1Cc2cccc(C(=O)NC(C)c3cccs3)c2C1=O (stereo not drawn)  -0.499%
56. COc1ccc(Br)cc1CNC(=O)c1cc2c(O)nc3ccccc3c2s1  -0.499%
57. N=C(NOC(=O)C12CC3CC(CC(C3)C1)C2)c1ccc(Cl)cc1  -0.597%
58. CC(C)(C)c1ccc2c(c1)C(=O)N(c1ccccc1C(=O)O)C2=O  -1.02%
59. N/C(=N\c1ccccc1)Nc1nc(O)c2c(n1)CCCC2  -1.17%
60. CC(=O)N(CN1C(=O)C2CCCCC2C1=O)c1ccccc1C (stereo not drawn)  -1.17%
61. CC(C)CNC(=O)c1ccc(Br)o1  -1.29%
62. Cc1cc(OC(C)C(=O)N(Cc2cccc(F)c2)C2CCS(=O)(=O)C2)ccc1Cl (stereo not drawn)  -1.35%
63. O=c1oc(-c2ccccc2Cl)nc2sc3c(c12)CCCC3  -1.5%
64. CC(=O)N1CCc2c([nH]c3ccccc23)C1c1cccc(C)c1 (stereo not drawn)  -1.62%
65. CCn1cc(C(=O)NCC2COc3ccccc3O2)c2cc(OC)c(OC)cc2c1=O (stereo not drawn)  -1.73%
66. CNC(=O)c1ccc(Cn2c(SCc3ccc(F)cc3)nc3ccncc32)cc1  -1.92%
67. CCOC(=O)c1cc2c(=O)n3ccccc3nc2n(C)/c1=N/C(=O)c1cc2ccccc2o1  -2.04%
68. CCCOc1ccc(C(=O)C2=C(O)C(=O)N(CCN(C)C)C2c2ccc(F)cc2)c(C)c1 (stereo not drawn)  -2.15%
69. Cc1cc(C)c(S(=O)(=O)NCC(=O)N2CCOCC2)c(C)c1  -2.15%
70. CN1CCC(Oc2ccccc2Sc2ccccc2)CC1  -2.18%
71. O=C(O)c1cc2n(n1)C(C(F)(F)F)CC(c1ccc(Cl)cc1)N2 (stereo not drawn)  -2.37%
72. Cc1cccc(CCNC(=O)c2cccc3c2SCCC3=O)c1  -2.58%
73. O=C(Nc1ccc(-c2cn3ccccc3n2)cc1)C1CC1c1ccccc1 (stereo not drawn)  -2.63%
74. Clc1ccc(C2=CC(c3cccs3)n3nnnc3N2)cc1 (stereo not drawn)  -2.75%
75. Cc1nc(NCc2ccc(F)cc2)nc2c1C(=O)c1ccccc1-2  -2.91%
76. Cc1cccc(N(C)S(=O)(=O)c2ccc(C(=O)Nc3cccc(C(=O)O)c3)cc2)c1  -2.97%
77. Cc1n[nH]c(C)c1CCCOc1ccc(Br)cc1  -3%
78. CC(C)C[C@H](NC(=O)C1CCC1)C(=O)NCC#N  -3.04%
79. CC(C)C[C@H](NS(=O)(=O)c1ccc2ccccc2c1)C(=O)NCC#N  -3.04%
80. CCc1ccccc1N(CC(=O)Nc1ccc2ccccc2c1)S(C)(=O)=O  -3.46%
81. CCCCCCCCNC(=O)Cc1ccc(OC)cc1  -3.49%
82. O=C(Cn1c(-c2ccccn2)nc2ccccc21)NCc1ccccc1  -3.5%
83. CC(C(=O)NCc1cccc(Cl)c1)n1c2ccccc2c2cnnc(O)c21 (stereo not drawn)  -3.79%
84. O=C(O)c1cc2cc(OCc3ccccc3)ccc2[nH]1  -4.52%
85. Cc1ccc(CNC(=O)Nc2nnc(N(C)C3CCCCC3)s2)cc1  -4.68%
86. CCOc1ccc(N(CC(=O)NC2CC2)S(=O)(=O)c2ccc(C)cc2)cc1  -4.7%
87. CCN(CC)c1ccc(NC(=O)c2cc(Cl)ccc2OC)cc1  -4.72%
88. O=C(CN1CCOCC1)NCC12CC3CC(CC(C3)C1)C2  -4.98%
89. CC(=O)N(C1=C(N2CCOCC2)C(=O)c2ccccc2C1=O)C1CCCCC1  -5.14%
90. CC1(C)CC(=O)c2sc(NC(=O)Cc3cccs3)nc2C1  -5.19%
91. O=C(CCc1nc(-c2cccs2)no1)Nc1cnc2ccccc2c1  -5.27%
92. COc1cc2c(cc1/C=C1/NC(=O)N(Cc3ccc(Cl)c(Cl)c3)C1=O)OCO2  -5.7%
93. O=c1[nH]c2ccccc2c(=O)n1Cc1ccccc1  -6.33%
94. Cc1ccc(NC(=O)C(C)Oc2ccccc2C)cc1O (stereo not drawn)  -7.89%
95. CCN(CC)CC1CCc2c(c3ccccc3n2C)C1=O (stereo not drawn)  -8.01%
96. COc1ccc(/C=C2/SC(=O)N(CC(=O)Nc3nccs3)C2=O)cc1OC  -8.06%
97. FC(F)(F)c1cc(-c2cccs2)nc(NC2CCCC2)n1  -10.1%
98. COC(=O)C1=C(O)/C(=C\c2ccccc2C(F)(F)F)N=C1C  -11.3%
99. Cc1cc(C)c(OCCOCCN2CCCC2)c(C)c1  -16%
